# Reference: PubChem BioAssay AID1476 (National Center for Advancing Translational Sciences (NCATS), 2009)
# In all, about 200,000 compounds went through this assay and about 4,500 (2.2%) were called active. Inconclusive means that the source gave no clear call. Such entries were picked first, then a sample of the others. Calls come from the whole dose curve; as a rule, active = well fitted inhibition curve with a large enough effect; inconclusive = small, poorly fitted or top-dose-only effect, or effect the other way; inactive = flat fitted curve, though single readings scatter. A potency beside an inconclusive call is a rough fit, not a confirmed value.
# Biological target: Cruzipain (Trypanosoma cruzi) (UniProt P25779)
# Assay: qHTS Assay for Promiscuous and Specific Inhibitors of Cruzain (without detergent); note: nearly all actives have a fitted effect of over 40% in size;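 for max response, negative = inhibition: plate controls were enzyme without inhibitor for no effect and buffer without enzyme for full effect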
# Conditions: purified cruzain, Z-FR-AMC fluorescence, no detergent
# In short: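 Purified cruzain at 1.5 nM, pre-incubated 15 min with compound at room temperature in 100 mM sodium acetate pH 5.5, 5 mM DTT, 0.00005% Triton X-100. Reaction started with 2 uM Z-FR-AMC; AMC fluorescence increase over 60 s gives rate.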
# Potency is the fitted concentration of half-maximal effect; tags give direction and shape of the fitted curve.
# UniProt P25779, sequence (P25779 whole entry, looked up): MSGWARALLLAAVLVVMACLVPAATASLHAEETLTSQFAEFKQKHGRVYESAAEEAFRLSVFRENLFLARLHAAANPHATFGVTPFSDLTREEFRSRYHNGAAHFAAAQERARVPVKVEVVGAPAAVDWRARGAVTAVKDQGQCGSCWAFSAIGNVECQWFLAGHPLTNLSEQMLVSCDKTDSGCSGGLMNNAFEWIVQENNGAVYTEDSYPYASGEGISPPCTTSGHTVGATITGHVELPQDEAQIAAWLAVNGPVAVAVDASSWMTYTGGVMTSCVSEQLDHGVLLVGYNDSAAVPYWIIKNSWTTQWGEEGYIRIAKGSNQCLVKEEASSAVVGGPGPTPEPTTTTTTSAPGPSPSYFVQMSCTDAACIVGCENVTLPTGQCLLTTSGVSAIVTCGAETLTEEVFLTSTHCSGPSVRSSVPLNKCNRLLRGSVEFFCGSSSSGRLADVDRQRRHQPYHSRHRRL
Compound,Potency,"max response, negative = inhibition"
O=C(c1cnc(N2CCN(c3ncccn3)CC2)c2ccccc12)N1CCN(c2ncccn2)CC1,"inconclusive: 31.6 µM [activator, single point]",
Cc1ccc(-n2cccc2/C=C2/NC(=O)N(CC(=O)Nc3cccc(C)c3)C2=O)cc1,active: 5.01 µM,
Cc1cc2n(n1)CCC(=O)N2Cc1ccc(C(=O)Nc2cc(Cl)ccc2C)cc1,"inconclusive: 39.8 µM [activator, single point]",
COc1ccc(OC)c(NC(=O)C2CCCN(S(=O)(=O)c3ccc4c(c3)CCCC(=O)N4)C2)c1 (configuration not stated),"inconclusive: 39.8 µM [activator, single point]",
C[C@@H]1C(c2ccccc2)=NN(c2ccccc2)[C@H]1C(=O)N1CCOC1=O,,inactive: -2.12%
COc1ccccc1C(=O)Nc1nc2n(n1)C(c1ccc(F)cc1)C=C(c1ccc(Cl)cc1)N2 (configuration not stated),"inconclusive: 25.1 µM [activator, partial curve]",
Cc1ccc(C)c(S(=O)(=O)c2nnn3c2nc(N2CCN(C)CC2)c2sccc23)c1,"inconclusive: 39.8 µM [activator, single point]",
O=C(NCCc1ccccc1)N1c2ccccc2Sc2ccccc21,,inactive: -0.565%
CC(Sc1nc(C(C)(C)C)cc(-c2ccccc2)c1C#N)C(=O)Nc1ccccc1 (configuration not stated),"inconclusive: 39.8 µM [inhibitor, single point]",
O=C(Nc1ccc(Cl)cn1)C1CCCN1S(=O)(=O)c1cccc2ccccc12 (configuration not stated),"inconclusive: 39.8 µM [inhibitor, single point]",
O=c1c2cc3c(cc2nc2sc(Nc4cccc([N+](=O)[O-])c4)nn12)OCO3,,inactive: 9.08%
CCCCN(C(=O)C1CCC(CNS(=O)(=O)c2cccc3nsnc23)CC1)c1ccccc1 (configuration not stated),,inactive: 5.81%
CCc1nc2ccccc2n(CCOCCOCCn2c(=O)c(CC)nc3ccccc32)c1=O,"inconclusive: 25.1 µM [activator, single point]",
COc1cccc2[nH]c3c(N4CCCC(C)C4)ncnc3c12 (configuration not stated),"inconclusive: 6.31 µM [activator, single point]",
O=c1cc(N2CCc3ccccc3C2)[nH]c(=O)n1-c1ccc(Cl)cc1,"inconclusive: 39.8 µM [inhibitor, single point]",
COC(=O)[C@@]1(Cc2ccc(F)cc2)[C@H]2c3cc(C(=O)N4CCCC4)n(Cc4c(CO)[nH]cc(C)c4=O)c3C[C@H]2CN1C(=O)c1ccccc1,"inconclusive: 31.6 µM [activator, single point]",
O=C(NCc1ccc(Cl)cc1)C(=O)NCC(c1cccs1)S(=O)(=O)c1ccc(Cl)cc1 (configuration not stated),"inconclusive: 15.8 µM [inhibitor, partial curve, poor fit]",
